PubChem BioAssay AID1508624 (National Center for Advancing Translational Sciences (NCATS), 2021)
The whole screen tested about 48,000 compounds, of which about 120 (0.25%) were called active. About 4% were inconclusive and are not listed. Calls follow the shape of the dose curve; as a rule, active = well fitted activation curve with a large enough effect; inconclusive = small, poorly fitted or top-dose-only effect, or another doubt; inactive = no such curve, though single readings can be large or run the other way. Some of the results follow.

Experiment: Primary qHTS for Identification of Small Molecule Activators of Huntingtin-Antisense Promoter Activity; also: nearly all actives have a fitted effect of over 55% in size
Details: HEK293 HTT-AS promoter firefly luciferase reporter, 24 h; series mostly up to 57.5 µM; activity change, positive = activation: at the top concentration
Procedure, shortened: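 HEK293 cells carrying firefly luciferase reporters were seeded at 2,500 per well in Opti-MEM and cultured for 24 h. They were then treated with compounds at up to 57.5 uM final for 24 h at 37 degrees C before Dual-Glo luminescence readout.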

| Compound | activity change, positive = activation |
| --- | --- |
| Cc1ccc2c(=O)cc(C(=O)Nc3ccc(S(=O)(=O)Nc4onc(C)c4C)cc3)oc2c1C | inactive: -2.23% |
| O=C(CSc1oc(-c2ccccc2)nc1S(=O)(=O)c1ccc(Cl)cc1)c1ccccc1 | inactive: -6.84% |
| O=C(CC1C(=O)N(c2ccc(F)cc2)C(=O)N1Cc1ccc2c(c1)OCO2)Nc1ccc(Cl)cc1 (stereo not drawn) | inactive: -10.9% |
| Cc1ccc(-n2cc(C(=O)Oc3ccc(F)cc3)c3ccccc3c2=O)cc1 | inactive: -19.3% |
| Cc1[nH]c(C=C2C(=O)Nc3ccc(S(=O)(=O)N(C)c4cccc(Cl)c4)cc32)c(C)c1C(=O)N1CCN(C)CC1 | inactive: -14.9% |
| Cc1cc(C)nc(-n2nc(C)c3c2N(Cc2ccccc2)C(=O)CC3c2ccc(Cl)cc2)n1 (stereo not drawn) | inactive: -30.8% |
| NC(=O)c1c(NC(=O)CS(=O)(=O)c2ccc(Cl)cc2)sc2c1CCCCC2 | inactive: -13.1% |
| Cc1ccc(Nc2c(-c3ccc(Br)o3)nc3ccccn23)cc1 | inactive: -6.45% |
| COc1ccc(S(=O)(=O)NCc2nc3nc(C)cc(C)n3n2)cc1 | inactive: -6.85% |
| Cc1ccc(Cl)cc1N1CCN(C(=O)Cn2ncc3c4ccccc4n(C)c3c2=O)CC1 | inactive: -8.8% |
| CCC(=O)Oc1c(Sc2ccc(Cl)cc2)c(C)nn1-c1ccccc1 | inactive: -28.8% |
| Cc1ccc(-c2nc(CS(=O)(=O)CC(=O)Nc3ccc(Br)cc3F)c(C)o2)cc1 | inactive: -7.49% |
| O=C(NCCCN1CCN(c2cccc(Cl)c2)CC1)c1sc2ncccc2c1-n1cccc1 | inactive: -26.4% |
| Cc1cc(Cl)ccc1NS(=O)(=O)c1c(C(=O)N2CCC(C)CC2)c(C)n(C)c1C | inactive: -26.8% |
| CC1CCCN(c2nc3c(-c4ccc(Cl)cc4)nnn3c3ccccc23)C1 (stereo not drawn) | inactive: -6.52% |
| Cc1cc(C=c2sc3nc4ccccc4n3c2=O)c(C)n1-c1ccccc1 | inactive: -83.5% |
| Cc1ccc(-c2csc(-c3cc4c([nH]c3=O)CC(c3ccccc3)CC4=O)n2)cc1 (stereo not drawn) | inactive: -39.4% |
| COc1ccc2oc(=O)c(-c3nnc(-c4ccc(C)cc4)o3)cc2c1 | inactive: -19.4% |
| CCN(CC)S(=O)(=O)c1ccc2c(c1)N(CC(=O)NCc1ccccc1)C(=O)C1CCCCN21 (stereo not drawn) | inactive: -12.8% |
| Cc1cc2c(cc1S(=O)(=O)Nc1ccc(OC(F)(F)F)cc1)OCC(=O)N2 | inactive: -36.8% |
| O=C(CCC(=O)c1ccc(F)cc1)Nc1ccc(Cl)cc1 | inactive: -10.1% |
| CCn1cc(S(=O)(=O)c2cccc(C)c2)c(=O)c2cc(F)c(N3CCCC(C)C3)cc21 (stereo not drawn) | inactive: -19.6% |
| O=C(c1ccc2c(c1)N(Cc1ccccc1F)C(=O)c1ccccc1S2(=O)=O)N1CCN(c2ccccn2)CC1 | inactive: -35.4% |
| CCOc1ccc(CNC(=O)C2CCCCN2S(=O)(=O)c2ccc(F)cc2)cc1OC (stereo not drawn) | inactive: -8.58% |

| Compound | activity change, positive = activation |
| --- | --- |
| COc1ccc(-c2nc3c(c(SC)n2)Cc2c(CO)cnc(C)c2O3)cc1 | inactive: -4.33% |
| CCn1c(=O)c2cc(C(=O)NCCCN3CCN(C)CC3)sc2c2ccccc21 | inactive: 3.37% |
| O=C(CSc1n[nH]c(-c2ccccc2Cl)n1)NCc1ccc(F)cc1 | inactive: -19.6% |
| CCSc1nc2n(n1)C(c1ccc(Cl)cc1Cl)C(C(=O)Nc1ccccc1C)=C(C)N2 (stereo not drawn) | inactive: -16.8% |
| CCCCOc1ccc(C(=O)N(Cc2ccc(N(C)C)cc2)Cc2ccco2)cc1 | inactive: -29.8% |
| CC(C)(C)c1ccc(-c2nc(NC(=O)CSc3ncnc4sc5c(c34)CCCC5)ns2)cc1 | inactive: 5.69% |
| Cc1ccc(-n2ncc3c(NCc4ccccc4)ncnc32)cc1Cl | inactive: 0.201% |
| CCc1ccc(NC(=O)CSc2nccn2-c2ccc(F)cc2)cc1 | inactive: -9.26% |
| COc1ccc(N2CC(NC(=O)/C=C\c3ccc4c(c3)OCO4)CC2=O)cc1OC (stereo not drawn) | inactive: -13.2% |
| COc1ccc(NC(=O)CN(C)S(=O)(=O)c2ccc3c(c2)CCCN3C(C)=O)cc1 | inactive: -15.9% |
| O=C(NCCc1csc(-c2cccnc2)n1)c1cccc(Cl)c1 | inactive: -19.3% |
| Cc1ccc2ncc(C(=O)c3ccc(C)c(C)c3)c(S(=O)(=O)c3ccc(F)cc3)c2c1 | inactive: -45.2% |
| Cc1c(C)n(CCN(C)C)c2ccc(C(=O)OCCN(C)C)cc12 | inactive: -20.7% |
| CCOc1ccc(CC(=O)NCCc2sc3nc(-c4ccc(F)cc4)nn3c2C)cc1 | inactive: -7.62% |
| Cc1ccccc1Cn1c(SCc2ccc(C(=O)NC3CCCCC3)cc2)nc2ccncc21 | inactive: -10.4% |
| Cc1nc(SCc2cccc(Cl)c2)nc2c1CCCC2 | inactive: 6.07% [at 11.5 µM, percent change from vehicle, -100% = no light] |
| CC(C)N(Cc1nc(-c2ccc(Cl)cc2)no1)C(=O)c1ccc(C(C)(C)C)cc1 | inactive: -17.1% |
| CC1=C(c2ccc(Cl)cc2)S(=O)(=O)N=C1N1CCN(c2cccc(C)c2C)CC1 | inactive: -14.8% |
| COc1cccc(CN2C(=O)c3ccccc3Sc3ccc(C(=O)OCc4ccco4)cc32)c1 | inactive: -3.86% |
| Cc1cccc(NC(=O)CSc2nc3ccc(NC(=O)c4ccccc4)cc3s2)c1 | inactive: -17.6% |
| CCOc1ccc(-c2cc3nc(C4CCN(C(=O)OC(C)(C)C)CC4)c(C(=O)Nc4cccc(CC)c4)cn3n2)cc1 | inactive: 10.3% |
| CC(=O)N1c2ccc(S(=O)(=O)N3CCCCCC3)cc2CC1C(=O)NCc1cccc(C)c1 (stereo not drawn) | inactive: 8.74% |
| COc1cc(NC(=O)Cn2c(=O)cc(C)c3c(C)nn(-c4ccc(C)cc4)c32)cc(OC)c1 | inactive: -13.5% |
| Cc1ccc(CNc2nnc(C)c3nnn(Cc4ccc(F)cc4)c23)cc1 | inactive: 11% |

| Compound | activity change, positive = activation |
| --- | --- |
| CCCCOc1ccc(C(=O)Nc2ccc(-c3cc4ccccc4oc3=O)cc2)cc1 | inactive: -46.7% |
| CC(C)(C)OC(=O)N1CCC(c2c(C(=O)NCCN3CCc4ccccc4C3)cnn2-c2ccc(F)cc2)CC1 | inactive: -18.8% |
| CC(C)c1ccc(OCC(=O)NCCS(=O)(=O)N2CCN(c3ccc(F)cc3)CC2)cc1 | inactive: 6.3% |
| Cc1c(Cl)cccc1NC(=O)c1ccc2c(c1)CCCN2S(C)(=O)=O | inactive: 11.9% |
| CCn1c(=O)cc(SCC(=O)NCc2cccc(Cl)c2)c2ccccc21 | inactive: -34.8% |
| COc1ccc(Cn2c(C(=O)O)c(CNC3CCCC3)c3ccc(OC)cc32)cc1 | inactive: -24% |
| COc1ccccc1C(=O)N1c2ncnn2C2(CCCCC2)[C@@H]2CCCC[C@@H]21 | inactive: -25% |
| CCOC(=O)c1ccc(NC(=O)C(CC)Sc2nc3ccncc3[nH]2)cc1 (stereo not drawn) | inactive: -14.9% |
| CCN1C(=O)c2ccccc2Sc2ccc(NC(=O)N3CCN(c4cc(C)ccc4C)CC3)cc21 | inactive: -21% |
| CSc1nc(Nc2ccc(F)cc2)cc(-c2ccccc2)n1 | inactive: -31.3% |
| Nc1ncnc2c1c(-c1cnc3[nH]ccc3c1)nn2C1CCCC1 | inactive: -37.7% |
| CCOc1ccc(-c2nn(-c3ccccc3)cc2C2NC(=O)NC(C)=C2C(=O)OC(C)C)cc1 (stereo not drawn) | inactive: -20% |
| CCc1ccccc1NC(=O)Cn1cc(S(=O)(=O)N2CCCC2)c(S(=O)(=O)N2CCCC2)c1 | inactive: -4.41% |
| O=C(c1ccco1)N(Cc1cccnc1)c1nc2c(F)cc(F)cc2s1 | inactive: -16.6% |
| COc1ccc2cc1Oc1ccc(cc1)C[C@H]1c3cc(c(OC)cc3CCN1C)Oc1c(OC)c(OC)cc3c1[C@H](C2)N(C)CC3 | inactive: -77% |
| C[C@]12CC[C@@H]3c4ccc(O)cc4C[C@@H](CCCCCCCCCS(=O)CCCC(F)(F)C(F)(F)F)[C@H]3[C@@H]1CC[C@@H]2O (stereo partly drawn) | inactive: -17.6% |
| COc1ccccc1NC(=O)CSc1nncn2c1cc1sccc12 | inactive: -10.9% |
| Cc1ccccc1CNC(=O)c1ccc2nc(SCc3ccc(F)cc3)n(C)c2c1 | inactive: -26.2% |
| CCOCCCNC(=O)C(c1ccccc1)N(Cc1ccc2c(c1)OCO2)C(=O)c1ccc(NC(C)=O)cc1 (stereo not drawn) | inactive: -3.63% |
| Cc1ccccc1CN1C(=O)c2ccccc2S(=O)c2ccc(C(=O)NCc3ccc(Cl)cc3)cc21 (stereo not drawn) | inactive: -12.5% |
| CCC(=O)C1=C(c2ccc(F)cc2)N(C(=O)CC)n2cnnc2S1 | inactive: -8.25% |
| CCCOc1ccc(-c2cccc(NS(=O)(=O)c3ccccc3)c2)nn1 | inactive: -27.3% |
| Cc1ccc2cccc(NC(=O)c3ccc(OC(C)C)cc3)c2n1 | inactive: -16.5% |
| CCc1ccccc1NC(=O)CN(c1ccccc1)S(=O)(=O)c1ccsc1C(=O)OC | inactive: -29.3% |

| Compound | activity change, positive = activation |
| --- | --- |
| O=C(NCc1ccc2c(c1)OCO2)c1ccc2c(c1)N(Cc1ccccc1F)C(=O)c1ccccc1S2 | inactive: -11.9% |
| COc1ccccc1CNC(=O)CC(c1ccc(C)cc1)N1Cc2ccccc2C1=O (stereo not drawn) | inactive: -24% |
| COc1ccc(CCNC(=O)CCS(=O)(=O)c2cc(Br)cc3c2N(C(C)=O)CC3)cc1OC | inactive: -17.5% |
| Cc1cc(C)cc(-n2ccn(Cc3ccccc3C)c(=O)c2=O)c1 | inactive: -2.47% |
| COc1ccc2c(c1)Cc1sc(NC(=O)c3cccc(C)c3)nc1-2 | inactive: -5.74% |
| COC(=O)CSc1nc2sc3c(c2c(=O)n1-c1ccccc1C)CC(C)(C)OC3 | inactive: -3.51% |
| CCc1ccc(NS(=O)(=O)c2cc(-c3cnc(C4CC4)o3)ccc2C)cc1 | inactive: -36.2% |
| Cc1ccc(OCC(=O)OC2=C(C(=O)c3ccccc3)N(C)S(=O)(=O)c3ccccc32)cc1 | inactive: -21.4% |
| Cc1oc(-c2ccc(C(=O)NCCC(C)C)cc2)nc1CN1CCc2ccccc21 | inactive: -46.5% |
| COc1ccccc1CNS(=O)(=O)c1ccc(-c2cnc(C3CC3)o2)cc1 | inactive: -36.8% |
| COCCNC(=O)c1c[nH]c2ccc(S(=O)(=O)Nc3ccc(F)cc3F)cc2c1=O | inactive: 0.192% |
| Cn1ccc2c(OCC(=O)NCc3ccccc3)cccc2c1=O | inactive: -21.1% |
| CC(C)c1nn2c(=O)cc(COC(=O)c3cccc(NC(=O)c4cccs4)c3)nc2s1 | inactive: -8.57% |
| CCc1ccc(C2=NN(CCC(=O)NCCc3ccc(OC)c(OC)c3)C(=O)CC2)cc1 | inactive: -14.6% |
| CCCOc1ccc(-c2nonc2NC(=O)c2cc(OC)c(OC)c(OC)c2)cc1OCCC | inactive: -23.7% |
| Cc1ccc(N2CC(NC(=O)c3cc4ccccc4o3)CC2=O)cc1C (stereo not drawn) | inactive: -11.6% |
| CCc1ccccc1NC(=O)CCOc1ccccc1 | inactive: -21.2% |
| CCc1ccccc1NC(=O)Cn1c(=O)n(-c2ccc(CC(=O)NCC3CCCO3)cc2)c(=O)c2ccccc21 (stereo not drawn) | inactive: -14.8% |
| COc1ccc(CSc2nc3ccncc3n2CC(=O)Nc2ccc(C)c(F)c2)cc1 | inactive: 18.9% |
| COc1ccc(CNC(=O)c2ccc3c(c2)N(Cc2ccc(C)cc2)CCS3)cc1 | inactive: -19.7% |
| CCOC(=O)c1cnc2nc(NCc3cccc(Br)c3)[nH]n2c1=O | inactive: -18.8% |
